Measurements: the supplement of paper PMC9446081
Screen size: about 39,000 compounds; about 220 (0.56%) showed activity. The list shows a part of the results.

test system: Escherichia coli K-12 BW25113; experiment: relative growth (OD600 normalised to plate interquartile mean) (fraction); higher = less growth inhibition, active = 0.2 or less; conditions: 50 µM; LB; incubation time: overnight (16-24 h)
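Note: static incubation at 37 °C against the wild-type strain, values averaged over two biological replicates.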

| Compound | relative growth |
| --- | --- |
| C[C@@H]1CN([C@H](C)CO)C(=O)c2cc(NS(C)(=O)=O)ccc2O[C@@H](C)CCCCO[C@H]1CN(C)S(=O)(=O)c1cn(C)cn1 | inactive: 1.01 |
| COCCNCCn1cnc2c1c(=O)[nH]c(=O)n2C | inactive: 0.918 |
| NNC(=O)Cn1nnc(N2CCCC2)n1 | inactive: 1 |
| C[C@@H]1CN([C@H](C)CO)C(=O)Cc2cc(NS(=O)(=O)c3cccs3)ccc2O[C@@H]1CN(C)S(=O)(=O)c1ccccc1 | inactive: 0.981 |
| Cc1noc(C)c1S(=O)(=O)Nc1ccc2c(c1)C(=O)N([C@@H](C)CO)C[C@@H](C)[C@@H](CN(C)C(=O)Nc1ccccc1)OCCCC[C@H](C)O2 | inactive: 0.993 |
| C[C@H](CO)N1C[C@H](C)[C@@H](CN(C)CC2CCCCC2)Oc2c(NC(=O)Nc3cccc4ccccc34)cccc2C1=O | inactive: 0.951 |
| C[C@H]1CN([C@@H](C)CO)S(=O)(=O)c2ccc(C#CC3CC3)cc2O[C@@H]1CN(C)C(=O)c1cccc(F)c1 | inactive: 1.01 |
| CO[C@@H]1CN(C)C(=O)c2ccc(NS(=O)(=O)CC(F)(F)F)cc2OC[C@@H](C)N(C(=O)c2ccc3c(c2)OCO3)C[C@H]1C | inactive: 1.01 |
| O=C(O)CCSC[C@@H]1O[C@H]2O[C@@H]3[C@@H](O)[C@H](O)[C@H](O[C@@H]4[C@@H](O)[C@H](O)[C@H](O[C@@H]5[C@@H](O)[C@H](O)[C@H](O[C@@H]6[C@@H](O)[C@H](O)[C@H](O[C@@H]7[C@@H](O)[C@H](O)[C@H](O[C@@H]8[C@@H](O)[C@H](O)[C@H](O[C@@H]9[C@@H](O)[C@H](O)[C@H](O[C@@H]1[C@@H](O)[C@@H]2O)O[C@H]9CSCCC(=O)O)O[C@H]8CSCCC(=O)O)O[C@H]7CSCCC(=O)O)O[C@H]6CSCCC(=O)O)O[C@H]5CSCCC(=O)O)O[C@H]4CSCCC(=O)O)O[C@H]3CSCCC(=O)O | inactive: 1.02 |
| C[C@@H]1CCCCO[C@H](CN(C)C(=O)Nc2cccc3ccccc23)[C@H](C)CN([C@H](C)CO)C(=O)c2cc(NS(=O)(=O)c3ccc(Cl)cc3)ccc2O1 | inactive: 1.04 |
| CCCNC(=O)N[C@@H]1C=C[C@@H](CC(=O)N2CCN(C)CC2)O[C@@H]1CO | inactive: 0.979 |
| C[C@@H]1CCCCO[C@@H](CN(C)C(=O)Nc2cccc3ccccc23)[C@@H](C)CN([C@H](C)CO)C(=O)c2cc(NS(=O)(=O)c3ccc(F)cc3)ccc2O1 | inactive: 1.03 |
| CC(C)NC(=O)N(C)C[C@H]1Oc2c(NS(=O)(=O)c3ccc(F)cc3)cccc2C(=O)N([C@H](C)CO)C[C@H]1C | inactive: 1 |
| COc1ccc(S(=O)(=O)Nc2cccc3c2O[C@@H](CN(C)Cc2ccc(Cl)c(Cl)c2)[C@@H](C)CN([C@@H](C)CO)C3=O)cc1 | inactive: 1.01 |
| C[C@@H]1CN([C@@H](C)CO)C(=O)c2cccc(NC(=O)Nc3ccc(C(F)(F)F)cc3)c2O[C@H]1CN(C)S(C)(=O)=O | inactive: 0.928 |
| C[C@@H]1CCCCO[C@@H](CN(C)C(=O)Nc2cccc3ccccc23)[C@@H](C)CN([C@@H](C)CO)C(=O)c2cc(NS(=O)(=O)c3ccc(Cl)cc3)ccc2O1 | inactive: 1.03 |
| C[C@@H]1CCCCO[C@H](CN(C)S(C)(=O)=O)[C@@H](C)CN([C@H](C)CO)C(=O)c2cc(NC(=O)c3ccncc3)ccc2O1 | inactive: 0.969 |
| C[C@@H]1CN([C@@H](C)CO)C(=O)c2cccc(NC(=O)Nc3ccccc3)c2O[C@@H]1CN(C)Cc1ccc(Cl)c(Cl)c1 | inactive: 1.01 |
| O=C(N/N=C/[C@H](O)[C@@H](O)[C@H](O)[C@H](O)CO)c1ccccc1O | inactive: 1 |

| Compound | relative growth |
| --- | --- |
| CC1=C(C(=O)O)N2C(=O)C(NC(=O)C(N)C3=CCC=CC3)C2SC1 (stereo unspecified) | inactive: 1.07 |
| COc1cccc(NC(=O)N(C)C[C@H]2OCc3ccccc3-c3c(n(C)c4ccccc34)C(=O)N([C@H](C)CO)C[C@H]2C)c1 | inactive: 1.03 |
| Cc1ccc(S(=O)(=O)Nc2ccc3c(c2)C(=O)N([C@H](C)CO)C[C@@H](C)[C@@H](CN(C)C(=O)C2CCCCC2)OCCCC[C@@H](C)O3)cc1 | inactive: 0.999 |
| O=C1c2ccccc2[C@](Cc2ccccc2I)(C(=O)NCCN2CCOCC2)[C@H](c2ccc(CO)cc2)N1C1CCCCC1 | inactive: 1.02 |
| C[C@H](CO)N1C[C@H](C)[C@@H](CN(C)Cc2ccc(-c3ccccc3)cc2)Oc2ccc(NC(=O)Nc3ccc(C(F)(F)F)cc3)cc2C1=O | inactive: 1.02 |
| COc1cccc(S(=O)(=O)Nc2ccc3c(c2)[C@H]2C[C@@H](CC(=O)NCCc4ccccc4)O[C@@H](CO)[C@H]2O3)c1 | inactive: 0.983 |
| COc1ccc(CN(C)C[C@H]2Oc3c(NC(=O)Nc4ccc(C(F)(F)F)cc4)cccc3C(=O)N([C@H](C)CO)C[C@H]2C)cc1 | inactive: 0.966 |
| O=C(CNC(=O)c1ccc(Cl)cc1)NO | inactive: 0.98 |
| COc1ccc(S(=O)(=O)N(C)C[C@H]2Oc3c(NS(=O)(=O)c4ccccc4)cccc3C(=O)N([C@@H](C)CO)C[C@H]2C)cc1 | inactive: 1.01 |
| C[C@@H]1CN([C@H](C)CO)C(=O)c2cc(NC(=O)Cn3cnnn3)ccc2O[C@@H]1CN(C)Cc1ccc2c(c1)OCO2 | inactive: 0.973 |
| Cc1ccc(S(=O)(=O)N(C)C[C@@H]2Oc3ccc(NC(=O)CCCN(C)C)cc3CC(=O)N([C@H](C)CO)C[C@H]2C)cc1 | inactive: 1.03 |
| C[C@@H]1CCCCO[C@@H](CN(C)CC2CCCCC2)[C@H](C)CN([C@@H](C)CO)C(=O)c2cc(NC(=O)Nc3ccc4c(c3)OCO4)ccc2O1 | inactive: 0.982 |
| C[C@@H]1CN([C@@H](C)CO)C(=O)c2cc(NC(=O)Nc3ccc(F)cc3)ccc2O[C@@H](C)CCCCO[C@H]1CN(C)Cc1ccc(C(F)(F)F)cc1 | inactive: 0.986 |
| CC(C)NC(=O)Nc1ccc2c(c1)CC(=O)N([C@H](C)CO)C[C@H](C)[C@@H](CN(C)C(=O)NC1CCCCC1)O2 | inactive: 0.983 |
| C[C@@H]1CCCCO[C@@H](CN(C)S(=O)(=O)c2ccc(F)cc2)[C@@H](C)CN([C@@H](C)CO)C(=O)c2cc(NC(=O)c3ccccc3)ccc2O1 | inactive: 0.969 |
| C[C@H]1CN([C@@H](C)CO)C(=O)c2cccc(NC(=O)c3nc4ccccc4s3)c2O[C@@H]1CN(C)S(C)(=O)=O | inactive: 0.983 |
| COc1ccc(S(=O)(=O)Nc2ccc3c(c2)CC(=O)N([C@H](C)CO)C[C@H](C)[C@H](CN(C)C)O3)cc1 | inactive: 0.962 |
| Cc1ccc(S[C@]2(C(=O)NCC(F)(F)F)CC(=O)N(Cc3cc(C(F)(F)F)cc(C(F)(F)F)c3)[C@@H]2c2ccc(CO)cc2)cc1 | inactive: 1 |
| Cc1ccc(S(=O)(=O)Nc2ccc3c(c2)C(=O)N([C@@H](C)CO)C[C@H](C)[C@@H](CN(C)S(=O)(=O)c2ccc(C)cc2)OCCCC[C@@H](C)O3)cc1 | inactive: 1 |

| Compound | relative growth |
| --- | --- |
| COc1ccc(/C=C/C(=O)C=C(O)/C=C/c2ccc(OC)c(OC)c2)cc1OC | inactive: 0.998 |
| COc1ccc(CN(C)C[C@@H]2OCCCC[C@H](C)Oc3ccc(NS(=O)(=O)c4ccc(OC)cc4)cc3C(=O)N([C@@H](C)CO)C[C@H]2C)cc1 | inactive: 0.999 |
| COCC(=O)Nc1ccc2c(c1)C(=O)N(C)C[C@H](OC)[C@H](C)CN(C(=O)Cc1ccccn1)[C@@H](C)CO2 | inactive: 0.984 |
| C[C@@H]1ON(c2cccc(C(=O)OC(C)(C)C)c2)[C@H](c2ccc(Br)cc2)[C@H]1C(=O)N1C(=O)OC[C@H]1Cc1ccccc1 | inactive: 1.01 |
| C[C@@H]1CN([C@@H](C)CO)C(=O)Cc2cc(NS(C)(=O)=O)ccc2O[C@@H]1CN(C)C(=O)Nc1ccc(C(F)(F)F)cc1 | inactive: 0.97 |
| CS(=O)(=O)N1CC(=O)Nc2ccccc21 | inactive: 1.01 |
| COc1ccc(S(=O)(=O)N(C)C[C@@H]2OCCCC[C@@H](C)Oc3ccc(NS(=O)(=O)c4cn(C)cn4)cc3C(=O)N([C@@H](C)CO)C[C@@H]2C)cc1 | inactive: 0.987 |
| O=C(C[C@H]1CC[C@@H]2[C@H](COC[C@@H](O)CN2C(=O)c2ccccc2)O1)NCCCN1CCOCC1 | inactive: 1.01 |
| C=CC[C@@H](CC(=O)N[C@H](CO)Cc1ccccc1)C(=O)N[C@@H](C)COC(=O)[C@H](CC=C)CC(=O)OC(C)(C)C | inactive: 0.993 |
| Cc1ccc(S(=O)(=O)N(C)C[C@H]2Oc3ccc(NC(=O)CCCN(C)C)cc3C(=O)N([C@H](C)CO)C[C@@H]2C)cc1 | inactive: 1.03 |
| N#CCC(=O)NCc1ccccn1 | inactive: 1.03 |
| Cc1ccc(-c2ccc3c(c2)O[C@@H](CN(C)C(=O)NC(C)C)[C@H](C)CN([C@@H](C)CO)S3(=O)=O)cc1 | inactive: 1.02 |
| C[C@@H]1CN([C@@H](C)CO)C(=O)c2ccccc2-c2ccccc2CO[C@H]1CN(C)C(=O)Nc1cccc(F)c1 | inactive: 0.98 |
| O=C(NC1=C(c2ccc(OC(F)(F)F)cc2)C(=O)c2ccccc2C1=O)c1ccc(Br)cc1 | inactive: 0.987 |
| C[C@@H]1CCCCO[C@H](CN(C)C(=O)CCC(F)(F)F)[C@@H](C)CN([C@H](C)CO)C(=O)c2cc(NS(=O)(=O)c3ccccc3)ccc2O1 | inactive: 0.984 |
| C[C@H]1CN([C@@H](C)CO)S(=O)(=O)c2ccc(-c3ccncc3)cc2O[C@@H]1CN(C)C(=O)c1cccc(F)c1 | inactive: 1.02 |
| Nc1cc2[nH]cnc2c(O)n1 | inactive: 0.931 |
| Cc1noc(C)c1NC(=O)Nc1ccc2c(c1)C(=O)N([C@@H](C)CO)C[C@@H](C)[C@H](CN(C)C(=O)Nc1ccc(C(F)(F)F)cc1)OCCCC[C@@H](C)O2 | inactive: 1.03 |
